# Where a name gives a salt, the structure may show the parent alone. ± gives the standard deviation of the averaged measurements. Whole data set: some 3,200 compounds, median “nuclei count (viability) relative to DMSO” near 99, cut for the lowest 2% near 16. The list shows a part of the results.
# Test system: U2OS
# Experiment: nuclei count (viability) relative to DMSO (% of DMSO); higher = more viable cells
# Conditions: 10 µM; 24 h
# Procedure: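 Primary image-based screen in U2OS cells: compounds at 10 uM for 24 h, then a 1 h o-propargyl-puromycin (OPP) pulse, click labelling, and high-throughput microscopy. Mean cytoplasmic OPP intensity and nuclei count were normalised to DMSO wells within each plate (DMSO = 100) and averaged over triplicate plates.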
row,Compound,nuclei count
1,Nc1nc2c(ccc3ccccc32)s1,86.3
2,"CC(C)NCC(O)c1ccc(O)c(O)c1 (single isomer, unassigned; (-)) [(-)-Isoproterenol hydrochloride]",106
3,O=C1C(O)=C([C@H]2CC[C@H](c3ccc(Cl)cc3)CC2)C(=O)c2ccccc21 [Atovaquone],112
4,Cc1ccc(/C=C2\CNC/C(=C\c3ccc(C)cc3)C2=O)cc1,7.58
5,Cc1ccccc1C(OCCN(C)C)c1ccccc1 (stereo not given) [Orphenadrine hydrochloride],100
6,CCOC(=O)C1=C(C)NC(C)=C(C(=O)OCC)C1 [Diludin],110
7,CNCc1cc(-c2ccccc2F)n(S(=O)(=O)c2cccnc2)c1,98.1
8,CCc1cc(-c2n[nH]c(C)c2-c2ccc3c(c2)OCCO3)c(O)cc1O,86.7 ± 6.5
9,CN1CCC(=C2c3ccccc3CCc3sccc32)CC1 [Pizotifen malate],103
10,COc1ncc(-c2ccc3nccc(-c4ccnnc4)c3c2)cc1NS(=O)(=O)c1ccc(F)cc1F,58.6
11,CN1CCOC(c2ccccc2)c2ccccc2C1 (stereo not given) [Nefopam hydrochloride],104
12,CN(C)[C@@H]1C(O)=C(C(=O)NCNCCCC[C@H](N)C(=O)O)C(=O)[C@@]2(O)C(O)=C3C(=O)c4c(O)cccc4[C@@](C)(O)[C@H]3C[C@@H]12 [Lymecycline],102
13,COc1ccc(NC(=O)c2ccc(-c3ccc(-c4noc(C)n4)cc3C)cc2)cc1N1CCN(C)CC1,81.6
14,CCCCCOC(=O)Nc1nc(=O)n([C@@H]2O[C@H](C)[C@@H](O)[C@H]2O)cc1F [Capecitabine (Xeloda)],102
15,"CCN(CC)CCOc1ccc(C(=C(Cl)c2ccccc2)c2ccccc2)cc1 [Clomiphene citrate (Z,E)]",93.3
16,"CC(O)(P(=O)(O)O)P(=O)(O)O [Etidronic acid, disodium salt]",86.6
17,CC(O)(P(=O)(O)O)P(=O)(O)O [Etidronate (Didronel)],115
18,Cc1ccc2c(=O)c3ccccc3n(CCCN)c2c1C,25.4
19,CCC1NC(=O)c2cc(S(N)(=O)=O)c(Cl)cc2N1 (stereo not given) [Quinethazone],97.3
20,COc1ccccc1N1CCN(CCCCNC(=O)c2ccc3ccccc3c2)CC1,102
21,c1cc2c3c(c1)c1c(n3CCNC2)CCCC1 [WAY 629 hydrochloride],94.2
22,O=C1[C@H](CC[C@H](O)c2ccc(F)cc2)[C@@H](c2ccc(O)cc2)N1c1ccc(F)cc1 [Ezetimibe (Zetia)],105
23,Cc1cnc(C(=O)NCCc2ccc(S(=O)(=O)NC(=O)NC3CCCCC3)cc2)cn1 [Glipizide],102 ± 1.4
24,CC(C)NC[C@H](O)COc1cccc2[nH]ccc12 [(S)-(-)-Pindolol],113
25,O=C(Cc1ccccc1)Nc1nc2ccc(Cl)cc2c2nc(-c3ccco3)nn12,97.9
26,COc1cc(C(C)=O)ccc1O [Apocynin (Acetovanillone)],95.3
27,CCCn1c(=O)[nH]c2nc(-c3ccc(S(=O)(=O)O)cc3)[nH]c2c1=O,113

row,Compound,nuclei count
1,CC(Cc1ccc(O)c(O)c1)(NN)C(=O)O [(S)-(-)-Carbidopa],103
2,CCCCCCCCCCCCCCCCOP(=O)([O-])OCC[N+](C)(C)C [Miltefosine (Hexadecylphosphocholine)],103
3,Cc1ccsc1/C=C/C1=NCCCN1C [Morantel tartrate],104
4,CN(C)c1ccc(O)c2c1C[C@H]1C[C@H]3[C@H](N(C)C)C(O)=C(C(N)=O)C(=O)[C@@]3(O)C(O)=C1C2=O [Minocycline hydrochloride],101
5,CCN(CC)CCNc1ccc(CO)c2sc3ccccc3c(=O)c12 [Hycanthone],49
6,CNC(C)CCC=C(C)C (stereo not given) [Isometheptene mucate],112
7,O=C(COc1ccc(Cl)cc1)N1CCN(Cc2ccc3c(c2)OCO3)CC1 [Fipexide hydrochloride],106
8,"CN(Cc1cnc2nc(N)nc(N)c2n1)c1ccc(C(=O)N[C@@H](CCC(=O)O)C(=O)O)cc1 (racemic) [Amethopterin (R,S)]",95.2
9,CN(Cc1cnc2nc(N)nc(N)c2n1)c1ccc(C(=O)N[C@@H](CCC(=O)O)C(=O)O)cc1 [Methotrexate],98.6 ± 7
10,Nc1nc(NC2CC2)c2ncn([C@H]3C=C[C@@H](CO)C3)c2n1 [Abacavir Sulfate],102
11,CCOC(=O)c1ccc(N)cc1 [Benzocaine],111
12,C[C@H]1[C@H](C)CC[C@]2(C(=O)O)CC[C@]3(C)C(=CC[C@@H]4[C@@]5(C)C[C@@H](O)[C@H](O)[C@@](C)(CO)[C@@H]5CC[C@]43C)[C@H]12 [Asiatic acid],92.3 ± 11
13,CCN(CC)CCOC(=O)C(c1ccccc1)c1ccccc1 [Adiphenine hydrochloride],102
14,OC(CCCN1CCCCC1)(c1ccccc1)c1ccccc1 [Diphenidol hydrochloride],99.3
15,CC1c2ccccc2CN1CC1=NCCN1 (stereo not given),95.3
16,CCCCCCCCCCCCc1ccc(S(=O)(=O)Nc2nncs2)cc1,102 ± 4.7
17,CN1CCN(c2c(F)cc3c(=O)c(C(=O)O)cn4c3c2OCN4C)CC1 [Marbofloxacin],105
18,Cn1cccc1/C=C1\C(=O)NC(=O)c2ccccc21,102
19,COc1cc2c(CCNC(C)=O)c[nH]c2cc1Cl [6-Chloromelatonin],94.1
20,Cc1ccc(S(=O)(=O)NC(=O)NN2CCCCCC2)cc1 [Tolazamide],102 ± 9.2
21,C=CC(C)(C)c1cc(/C=C/C(=O)c2ccc(O)cc2)c(OC)cc1O [Licochalcone A],72.1
22,C[C@]12CC[C@@H]3c4ccc(OS(=O)(=O)O)cc4CC[C@H]3[C@@H]1CCC2=O [Estropipate],105
23,CCCCNc1c(C(=O)OCC)c(C)nc2c1cnn2CC [Tracazolate hydrochloride],102 ± 2.8
24,COc1cc(NC(C)CCCN)c2ncccc2c1 (stereo not given) [Primaquine diphosphate],15.7
25,CC(C)c1ccc(Cn2ccc3c4c(N)nc(NC5CC5)nc4ccc32)cc1,29.3
26,CCCCC1(COC(=O)CCC(=O)O)C(=O)N(c2ccccc2)N(c2ccccc2)C1=O [Suxibuzone],99
27,COc1cc(-c2ccc(=O)[nH]n2)ccc1OC(F)F [Zardaverine],102 ± 11

row,Compound,nuclei count
1,Cc1ccc([N+](=O)[O-])cc1S(=O)(=O)N(C)/N=C/c1cnc2ccc(Br)cn12,34.4
2,CCCCCCCc1ccc(CCc2cccc(O)c2C(=O)O)cc1,7.35
3,c1ccc(COCCCc2c[nH]cn2)cc1 [Proxyfan Oxalate],104
4,CC[N+](CC)(CC)CC(=O)Nc1c(C)cccc1C [QX 314 chloride],104
5,CC[N+](CC)(CC)CC(=O)Nc1c(C)cccc1C [QX-314 bromide],104
6,CC[N+](CC)(CC)CC(=O)Nc1c(C)cccc1C [QX 314 bromide],97.5
7,Cc1cc(-c2ccccc2)nnc1NCCN1CCOCC1 [Minaprine dihydrochloride],102
8,NC(N)=Nc1nc(CSCC/C(N)=N/S(N)(=O)=O)cs1 [Famotidine (Pepcid)],102
9,NC(N)=Nc1nc(CSCC/C(N)=N/S(N)(=O)=O)cs1 [Famotidine],105
10,Cl.N=C(N)NCCC[C@H](N)C(=O)O [L-Arginine HCl],91.1
11,CC1=C(/C=C/C(C)=C/C=C/C(C)=C\C(=O)O)C(C)(C)CCC1 [Isotretinoin],96.6
12,CC1=C(/C=C/C(C)=C/C=C/C(C)=C\C(=O)O)C(C)(C)CCC1 [13-cis Retinoic acid],106
13,CC/C(=C(/CC)c1ccc(O)cc1)c1ccc(O)cc1 [Diethylstilbestrol],97.9
14,CSc1ccc2c(c1)N(CCC1CCCCN1C)c1ccccc1S2 (stereo not given) [Thioridazine hydrochloride],81.1
15,CC(C)(Sc1ccc(CCN(CCCCC2CCCCC2)C(=O)NC2CCCCC2)cc1)C(=O)O,99.4 ± 3
16,CN(C)[C@@H]1C(O)=C(C(N)=O)C(=O)[C@@]2(O)C(O)=C3C(=O)c4c(O)cccc4[C@@](C)(O)[C@H]3[C@H](O)[C@@H]12 [Oxytetracycline (Terramycin)],99.7
17,CN(C)[C@@H]1C(O)=C(C(N)=O)C(=O)[C@@]2(O)C(O)=C3C(=O)c4c(O)cccc4[C@@](C)(O)[C@H]3[C@H](O)[C@@H]12 [Oxytetracycline dihydrate],105 ± 1.9
18,COc1cc(OC)c(/C=C/S(=O)(=O)Cc2ccc(OC)c(NCC(=O)O)c2)c(OC)c1,16.3 ± 1.4
19,OC(CN1CCN(c2cccc(Cl)c2)CC1)C(c1ccccc1)c1ccccc1 (stereo not given),98.1
20,COc1ccc(-c2ccc3c(N4CCOCC4)nc(N4C[C@@H](C)O[C@@H](C)C4)nc3n2)cc1CO,90
21,CC(=O)[C@H]1CC[C@H]2[C@@H]3CC=C4C[C@@H](O)CC[C@]4(C)[C@H]3CC[C@]12C [Pregnenolone],103 ± 4.8
22,COc1ccc(CC2c3cc(OC)c(OC)cc3CC[N+]2(C)CCC(=O)OCCCCCOC(=O)CC[N+]2(C)CCc3cc(OC)c(OC)cc3C2Cc2ccc(OC)c(OC)c2)cc1OC (stereo not given) [Atracurium besylate],83.9
23,CN(C)c1ccc(C(=C2C=CC(=[N+](C)C)C=C2)c2ccc(N(C)C)cc2)cc1 [Crystal violet],13
24,Oc1cc2c(cc1O)[C@@H]1c3ccc(O)c(O)c3OC[C@]1(O)C2 [Hematoxylin (Hydroxybrazilin)],86
25,CC(C(=O)O)c1ccc2c(c1)CC(=O)c1ccccc1S2 (stereo not given) [Zaltoprofen],107
26,C[C@@H](O)[C@H]1C(=O)N2C(C(=O)[O-])=C(SC3Cn4cnc[n+]4C3)[C@H](C)[C@H]12 (stereo not given in full) [Biapenem],108
